Assay results: PubChem BioAssay AID624417 (National Center for Advancing Translational Sciences (NCATS), 2012)
In all, about 410,000 compounds went through this assay and about 6,400 (1.6%) were called active. Inconclusive results, whose numbers are uncertain, are shown with a selection of clear calls. The call rests on the fitted dose curve; in most records, active means well fitted inhibition curve with a large enough effect; inconclusive means small, poorly fitted or top-dose-only effect; inactive means no such curve, though single readings can be large or run the other way. No potency is given beside an inconclusive call; the fits are too rough.
Further: nearly all actives have a fitted effect of over 55% in size.
Potency means the concentration at half of the fitted maximal effect; tags describe the fitted curve by direction and shape.

These compounds were tested against Glucagon-like peptide 1 receptor (Homo sapiens) (UniProt P43220) (assay: qHTS of GLP-1 Receptor Inverse Agonists (Inhibition Mode)). Settings: HEK293 GLP-1R CRE-luciferase, luminescence, 24 h, GLP-1R form is constitutively active; series mostly up to 38.3 µM.
Sequence of UniProt P43220 (P43220 whole entry, looked up): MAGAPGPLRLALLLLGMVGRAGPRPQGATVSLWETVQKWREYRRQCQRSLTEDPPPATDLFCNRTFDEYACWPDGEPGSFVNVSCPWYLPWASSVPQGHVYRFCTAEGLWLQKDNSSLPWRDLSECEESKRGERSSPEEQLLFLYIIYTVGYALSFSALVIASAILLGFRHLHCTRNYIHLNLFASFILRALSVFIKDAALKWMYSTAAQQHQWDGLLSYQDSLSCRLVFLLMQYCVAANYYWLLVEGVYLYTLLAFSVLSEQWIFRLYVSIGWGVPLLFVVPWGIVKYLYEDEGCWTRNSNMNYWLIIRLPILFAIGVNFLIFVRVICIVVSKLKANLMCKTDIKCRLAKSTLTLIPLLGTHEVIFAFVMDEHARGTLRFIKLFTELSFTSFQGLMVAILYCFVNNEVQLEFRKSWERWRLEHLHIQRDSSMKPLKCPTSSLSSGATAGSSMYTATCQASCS
Method in brief: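 qHTS in 1536-well format: reporter HEK293 cells expressing constitutive GLP-1R activity in DMEM + 10% Nu serum, 24 hr with compounds at 37 deg C, luminescence read after 12 min with detection reagent.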
In the case of `O=c1oc2cc(Br)ccc2n1Cc1ccccc1`, the Potency is reported as inconclusive [inhibitor, single point]. With `Cc1c(CNC(=O)C2CC2)c(-n2cccc2)n(Cc2ccccc2)c1C` the Potency was inconclusive [inhibitor, full curve, poor fit]. With `CC(O)(c1cccc(F)c1)c1nc(-c2ccc(Cl)cc2)cs1` (stereo not drawn) the Potency was inconclusive [inhibitor, single point]. `Cc1ccc(C(=O)Nc2ccc3c(c2)CCC3)cc1S(=O)(=O)N1CCOCC1` was tested, and the Potency was inconclusive [inhibitor, partial curve, poor fit]. In the case of `COc1ccc(/C=C/C(=O)C(C(N)=O)=C2SCCS2)cc1`, the Potency is reported as “inactive”. For `Fc1cccc(Cl)c1CSc1nnc2ccccn12`, the Potency was “inactive”. `Cc1cc(-c2ccc(C(C)C)c(S(=O)(=O)NCc3ccco3)c2)on1` was tested, and the Potency was inconclusive [inhibitor, partial curve, poor fit]. For `O=C(c1cccnc1)N1CCN(Cc2ccccc2Br)CC1`, the Potency was “inactive”. With `Cc1ccccc1-c1cc(=O)c2c(O)cccc2o1` the Potency was inconclusive [inhibitor, single point]. In the case of `CCCCn1nc(NC(=O)c2cccs2)c2cc3cc(OC)ccc3nc21`, the Potency is reported as inconclusive [inhibitor, single point]. `CC(C)C[C@@H](C)C(=O)N(Cc1ccccc1)c1ccccc1` was tested, and the Potency was inconclusive [inhibitor, partial curve, poor fit]. For `CC(C)CNS(=O)(=O)c1ccc(NC(=O)Cn2nc(-c3ccc(F)cc3)ccc2=O)cc1`, the Potency was inconclusive [inhibitor, single point]. With `CCN(CC)C(=O)Cn1cc(C(=O)C(=O)N2CCN(c3ccc([N+](=O)[O-])cc3)CC2)c2ccccc21` the Potency was inconclusive [inhibitor, partial curve, poor fit]. With `FC(F)Oc1ccc(NC(=S)NCc2ccco2)cc1Cl` the Potency was inconclusive [inhibitor, partial curve, poor fit]. In the case of `Cc1oc(-c2ccccc2Cl)nc1Cn1cccc1C1=NC(c2ccccc2)CO1` (stereo not drawn), the Potency is reported as inconclusive [inhibitor, single point]. For `O=[N+]([O-])c1ccc(CSc2ccc(S(=O)(=O)N3CCCC3)cn2)cc1`, the Potency was inconclusive [inhibitor, single point]. For `CCOC(=O)c1cc2c(ccn2C)n1CC(=O)N(Cc1ccccc1)c1ccccc1`, the Potency was active: 12.6 µM. `COc1ccc(/C=C/CN2CCCC(CO)(Cc3cccc(Cl)c3)C2)cc1` (stereo not drawn) was tested, and the Potency was active: 3.16 µM.
